Experimental findings from paper PMC4336329 (PLoS ONE, 2015) are described below.

Molecules are shown by their SMILES. Among all 310,000 compounds or so, about 14,000 (4.5%) showed an effect of 50% or more. Effects have a minus sign here. The list shows a part of the results.
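Note: peak tail current of the secondary pulse compared with the same well before compound.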

This experiment deals with human ether-à-go-go-related gene (hERG) potassium channel (human, UniProt Q12809). Kind of experiment: primary screen, population patch clamp on CHO cells stably expressing hERG.
Sequence of human ether-à-go-go-related gene (hERG) potassium channel (Q12809 whole entry, looked up): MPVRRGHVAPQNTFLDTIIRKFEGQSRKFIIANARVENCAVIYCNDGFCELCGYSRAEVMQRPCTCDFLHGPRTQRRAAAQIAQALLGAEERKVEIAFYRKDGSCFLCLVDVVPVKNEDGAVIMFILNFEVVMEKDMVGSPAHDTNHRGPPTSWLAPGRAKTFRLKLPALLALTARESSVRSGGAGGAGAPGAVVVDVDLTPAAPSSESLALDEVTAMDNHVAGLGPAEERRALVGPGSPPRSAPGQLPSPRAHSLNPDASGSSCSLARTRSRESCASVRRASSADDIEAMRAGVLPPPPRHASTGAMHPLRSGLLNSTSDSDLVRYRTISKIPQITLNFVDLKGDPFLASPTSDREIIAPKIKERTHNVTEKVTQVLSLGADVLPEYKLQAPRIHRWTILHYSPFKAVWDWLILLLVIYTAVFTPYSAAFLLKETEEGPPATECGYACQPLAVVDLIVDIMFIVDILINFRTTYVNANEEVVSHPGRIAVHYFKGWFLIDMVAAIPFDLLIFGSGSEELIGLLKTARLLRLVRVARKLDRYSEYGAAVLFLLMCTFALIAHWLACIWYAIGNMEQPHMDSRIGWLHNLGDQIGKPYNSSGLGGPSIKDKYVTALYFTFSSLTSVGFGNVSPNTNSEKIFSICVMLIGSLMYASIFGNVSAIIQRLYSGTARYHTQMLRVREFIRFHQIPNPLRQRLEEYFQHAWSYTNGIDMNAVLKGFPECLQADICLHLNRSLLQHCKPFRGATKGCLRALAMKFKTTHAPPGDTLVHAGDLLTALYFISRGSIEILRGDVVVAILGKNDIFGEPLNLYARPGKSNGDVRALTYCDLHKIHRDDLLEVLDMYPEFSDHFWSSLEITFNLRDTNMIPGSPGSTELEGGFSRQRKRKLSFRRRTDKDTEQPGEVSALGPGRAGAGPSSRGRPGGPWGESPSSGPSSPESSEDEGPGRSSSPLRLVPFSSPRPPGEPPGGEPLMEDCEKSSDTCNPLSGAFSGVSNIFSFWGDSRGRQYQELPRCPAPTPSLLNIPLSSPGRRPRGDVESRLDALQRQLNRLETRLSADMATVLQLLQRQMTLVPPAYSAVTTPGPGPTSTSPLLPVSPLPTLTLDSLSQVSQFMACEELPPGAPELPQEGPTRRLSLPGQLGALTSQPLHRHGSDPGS
Consider `CCCC(NC(=O)COc1cc2c(c3oc(=O)cc(C)c13)CCC(C)(C)O2)C(=O)O` (centres unmarked), for which the “hERG current change (%, negative = inhibition) at 10uM” value stood at 18.4%.

As to `COc1cc(/C=N\NC(=O)c2ccc(-c3ccccc3)cc2)cc(OC)c1OC(C)=O`, the “hERG current change (%, negative = inhibition) at 10uM” value is 6.49%.

Take `Cn1c(NC(=O)c2ccc(F)cc2)c(-c2ccccn2)c(=O)c2ccccc21`: the “hERG current change (%, negative = inhibition) at 10uM” value is 24.7%.

On to `CC(CCc1ccccc1)NC(=O)C(Cc1ccccc1)NC(N)=O` (centres unmarked), for which the “hERG current change (%, negative = inhibition) at 10uM” value is given as 20.2%.

Regarding `CCc1ccc(OCC(O)CNC(C)(C)C)cc1.Cl` (centres unmarked), the “hERG current change (%, negative = inhibition) at 10uM” value is reported as -4.05%.

Regarding `Cc1ccc(S(=O)(=O)N2CCN(C(=O)c3n[nH]c(=O)c4ccccc34)CC2)c(C)c1`, the “hERG current change (%, negative = inhibition) at 10uM” value is recorded as -30%.

Consider `COc1ccc(OC)c(-c2csc(NC(=O)Cc3cccs3)n2)c1`, for which the “hERG current change (%, negative = inhibition) at 10uM” value was 10.5%.

In the case of `Cc1ccc(S(=O)(=O)/N=C(/c2ccccc2)N2CCOCC2)cc1`, the “hERG current change (%, negative = inhibition) at 10uM” value is given as 14.2%.

In the case of `Cl.Clc1ccccc1/C=N/N1CCN(Cc2ccccc2)CC1`, the “hERG current change (%, negative = inhibition) at 10uM” value is 2.24%.

On to `CC(=O)Nc1ccc(Oc2cc(C#N)c(C#N)cc2N2CCCCCC2)cc1`, for which the “hERG current change (%, negative = inhibition) at 10uM” value was -26.5%.

On to `COc1ccccc1N1CCN(S(=O)(=O)/C=C/c2ccccc2)CC1`, for which the “hERG current change (%, negative = inhibition) at 10uM” value is -11.3%.

Regarding `O=C1CC(NC(=O)C(F)(F)F)=NN1c1ccccc1`, the “hERG current change (%, negative = inhibition) at 10uM” value was 7.57%.

As to `Cc1ccc(C)n1NC(=O)c1ccc([N+](=O)[O-])cc1`, the “hERG current change (%, negative = inhibition) at 10uM” value was -10.3%.

Regarding `O=C(N/N=C/c1cc(Cl)ccc1O)c1ccncc1`, the “hERG current change (%, negative = inhibition) at 10uM” value is given as -13.6%.

Take `COc1cc(C)c(CN2CCN(CC(=O)Nc3ccccc3C(=O)NC3CC3)CC2)cc1OC`: the “hERG current change (%, negative = inhibition) at 10uM” value is given as -80.1%.

On to `Cc1ccc(S(=O)(=O)N(CC(=O)N/N=C/c2cccc(C)c2)c2cccc3cccnc23)cc1`, for which the “hERG current change (%, negative = inhibition) at 10uM” value came to 12.6%.

As to `CCOc1cc(/C=C(/C#N)c2ccc(F)cc2)ccc1OCc1ccc(C(=O)O)o1`, the “hERG current change (%, negative = inhibition) at 10uM” value worked out at 6.19%.

Turning to `Cc1cccc(NCc2nc3ccccc3n2C)c1`, the “hERG current change (%, negative = inhibition) at 10uM” value is recorded as -6.06%.

With `N#Cc1nc(-c2ccc(Cl)cc2)oc1NCCc1ccccn1`, the “hERG current change (%, negative = inhibition) at 10uM” value is on record as -3.05%.

As to `Cc1ccc(-c2nc3c(c(=O)[nH]c(=O)n3Cc3ccccc3)n2C)s1`, the “hERG current change (%, negative = inhibition) at 10uM” value came out at 2.88%.

`O=[N+]([O-])c1ccccc1/C=C\C=N\N1CCN(c2ccccc2)CC1`: the “hERG current change (%, negative = inhibition) at 10uM” value is listed as -9.57%.

With `COc1ccc(CNC(=O)CN(Cc2ccccc2)S(=O)(=O)c2ccc(Cl)cc2)cc1`, the “hERG current change (%, negative = inhibition) at 10uM” value was -61.7%.

As to `CCOc1ccc(-c2cn(CCC#N)cn2)cc1`, the “hERG current change (%, negative = inhibition) at 10uM” value came out at 13.8%.

As for `COc1cc(C(=O)N/N=C(\C)c2ccc3c(c2)OCO3)cc(OC)c1OC`, the “hERG current change (%, negative = inhibition) at 10uM” value is on record as 2.14%.

With `CC(=O)Nc1ccc(S(=O)(=O)N(CC(=O)Nc2cc(C)on2)Cc2ccc(F)cc2)cc1`, the “hERG current change (%, negative = inhibition) at 10uM” value is -11.5%.

Consider `Cc1cc(C(=O)COC(=O)c2n[nH]c3ccccc23)c(C)n1C`, for which the “hERG current change (%, negative = inhibition) at 10uM” value stood at 1.08%.

With `CCOC(=O)c1c(NC(=O)c2ccc(Br)o2)sc2c1CCCC2`, the “hERG current change (%, negative = inhibition) at 10uM” value is recorded as -9.78%.

`CC1CCN(C(=S)NC(=O)c2cccs2)CC1`: the “hERG current change (%, negative = inhibition) at 10uM” value was 9.34%.

With `O=C1N=c2ccccc2=C/C1=C\c1c(O)[nH]c(=S)[nH]c1=O`, the “hERG current change (%, negative = inhibition) at 10uM” value is 13.1%.

With `CN(C)/C=C1\C(=O)Oc2ccccc2C1=O`, the “hERG current change (%, negative = inhibition) at 10uM” value is on record as 18.3%.

For the compound `O=C(Cc1ccccc1)NCCCN1CCN(CCCNC(=O)Cc2ccccc2)CC1`, the “hERG current change (%, negative = inhibition) at 10uM” value came out at 3.92%.

In the case of `CCOC(=O)C1(Cc2cccc(Cl)c2)CCCN(C(=O)c2ccnn2C)C1` (centres unmarked), the “hERG current change (%, negative = inhibition) at 10uM” value is -11.9%.

Turning to `CN(C)CCP(=O)(c1ccccc1)c1ccccc1`, the “hERG current change (%, negative = inhibition) at 10uM” value was found to be 13.4%.

Take `O=C(N=C1SC2CS(=O)(=O)CC2N1c1ccc(F)cc1)C1CC1` (centres unmarked): the “hERG current change (%, negative = inhibition) at 10uM” value is 11.5%.

For `CCCCN(CCCC)S(=O)(=O)c1ccc(NC(=O)CN2CCOCC2)cc1`, the “hERG current change (%, negative = inhibition) at 10uM” value was -53.6%.

For the compound `O=C(COc1ccc(Br)cc1CO)N1CCCc2ccccc21`, the “hERG current change (%, negative = inhibition) at 10uM” value amounted to 3.43%.

Regarding `CN(CC(=O)OCC(=O)NCC(F)(F)F)S(=O)(=O)c1ccc(Cl)cc1`, the “hERG current change (%, negative = inhibition) at 10uM” value was -5.32%.

As to `N#CCSc1nnc(-c2sc3ccccc3c2Cl)o1`, the “hERG current change (%, negative = inhibition) at 10uM” value is -0.209%.

In the case of `Cc1ccc2c(c1)c1c(n2CC(O)Cn2nc(C)c(Br)c2C)CCCC1` (centres unmarked), the “hERG current change (%, negative = inhibition) at 10uM” value is recorded as 9.72%.

Take `COc1ccc(OC)c(NC(=O)CCc2nnc3ccc(NCc4ccco4)nn23)c1`: the “hERG current change (%, negative = inhibition) at 10uM” value is listed as -15.2%.

For `CC1=CCC2C(=O)N(c3nc4ccccc4n3C)C(=O)C2C1` (centres unmarked), the “hERG current change (%, negative = inhibition) at 10uM” value is -4.38%.

In the case of `CC1(c2cccc(Br)c2)NC(=O)N(CC(=O)Nc2ccc3c(c2)OCO3)C1=O` (centres unmarked), the “hERG current change (%, negative = inhibition) at 10uM” value was -12.5%.

For the compound `COc1ccccc1CNC(=O)c1ccc(OCc2c(C)noc2C)c(OC)c1`, the “hERG current change (%, negative = inhibition) at 10uM” value is listed as -7.82%.

`NS(=O)(=O)c1cc(Cl)c(NC(=O)COC(=O)c2ccccn2)c(Cl)c1`: the “hERG current change (%, negative = inhibition) at 10uM” value is reported as 5.59%.

On to `O=C(CSc1nnc(NC(=O)C2CC(=O)N(c3ccccc3)C2)s1)NCC1CCCO1` (centres unmarked), for which the “hERG current change (%, negative = inhibition) at 10uM” value came to 17.5%.

With `Cc1cc(C)c2c(n1)nn1c(N3CCN(c4ccccc4)CC3)cc(C)nc21`, the “hERG current change (%, negative = inhibition) at 10uM” value came to 4.66%.

For the compound `COc1ccccc1NC(=O)N1CCCC1C(=O)NCc1ccccc1Cl` (centres unmarked), the “hERG current change (%, negative = inhibition) at 10uM” value came to 7.24%.

Take `CC(=O)N(c1ccccc1)c1nc(/C=C/C(=O)Nc2c(C)cc(C)cc2C)cs1`: the “hERG current change (%, negative = inhibition) at 10uM” value is 2.03%.

Turning to `CN(C)CCOc1ccc2ccccc2c1.O=C(O)C(=O)O`, the “hERG current change (%, negative = inhibition) at 10uM” value is recorded as -14.3%.

In the case of `CC(/C=N/Nc1nnc(C)c(=O)[nH]1)=C\c1ccccc1`, the “hERG current change (%, negative = inhibition) at 10uM” value is given as -10.5%.

As for `COc1ccc(NC(=O)c2cc3c(=O)n4ccccc4nc3n2C)c(OC)c1`, the “hERG current change (%, negative = inhibition) at 10uM” value came out at 2.99%.

On to `CC(C)(C)c1cccc(Cn2nnc3ccccc32)c1O`, for which the “hERG current change (%, negative = inhibition) at 10uM” value is 17.2%.

For `O=C(NCCO)Nc1ccc(Cl)cc1`, the “hERG current change (%, negative = inhibition) at 10uM” value came out at 27.7%.

Take `COc1ccc(C(=O)Nc2ccnn2C2CCN(Cc3cn(C)nc3C)CC2)cc1`: the “hERG current change (%, negative = inhibition) at 10uM” value was found to be 17.1%.

As to `Cc1cccc2cc(COC(=O)c3cccc([N+](=O)[O-])c3)c(=O)[nH]c12`, the “hERG current change (%, negative = inhibition) at 10uM” value is 21%.

As to `Cc1onc(-c2ccccc2Cl)c1C(=O)Nc1cc(=O)n(C)c(=O)n1C`, the “hERG current change (%, negative = inhibition) at 10uM” value is reported as 6.1%.
